Hit rate of the full screen: of about 48,000 compounds, about 550 (1.1%) were called active. Another 4% or so got no clear call; they are omitted. Rule as the data show it: active = potency below about 15 µM; inconclusive = mostly about 16 µM to 33 µM; inactive = weaker than that. This is one part of the list.
Biological target: Lysosomal acid glucosylceramidase (Homo sapiens) (UniProt P04062)
Test: Glucocerebrosidase;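 also: the screen sought inhibitors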
Details: purified enzyme, resorufin glucoside fluorescence (screen aimed at inhibitors), 20 min
Outline: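 Compounds titrated against 0.2 nM normal enzyme, 30 uM resorufin beta-D-glucopyranoside substrate, citrate/phosphate buffer with taurocholate and tween-20, pH 5.9. Reaction ran 20 min at room temperature; fluorescence (Ex 548/Em 600) gave AC50.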
Potency is read from the fitted curve at half-maximal effect.

UniProt P04062, sequence (P04062 whole entry, looked up): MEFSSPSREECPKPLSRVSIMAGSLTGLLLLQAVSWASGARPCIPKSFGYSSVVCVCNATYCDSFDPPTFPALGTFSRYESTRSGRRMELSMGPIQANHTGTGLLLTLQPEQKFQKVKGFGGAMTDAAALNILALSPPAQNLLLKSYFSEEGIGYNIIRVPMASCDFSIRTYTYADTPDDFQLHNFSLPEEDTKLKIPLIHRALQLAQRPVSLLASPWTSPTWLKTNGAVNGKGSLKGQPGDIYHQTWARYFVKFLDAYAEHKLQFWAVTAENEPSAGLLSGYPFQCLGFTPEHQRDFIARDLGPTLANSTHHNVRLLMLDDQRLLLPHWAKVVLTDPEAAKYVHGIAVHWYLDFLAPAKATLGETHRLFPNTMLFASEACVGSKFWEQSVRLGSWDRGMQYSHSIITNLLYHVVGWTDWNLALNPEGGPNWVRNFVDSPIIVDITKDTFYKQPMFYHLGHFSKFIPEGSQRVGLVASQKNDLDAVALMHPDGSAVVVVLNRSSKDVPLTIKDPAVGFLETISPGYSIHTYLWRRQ

Potency, inactive:
CCOC(=O)c1cnn(-c2cc(C)c3cc(C)cc(C)c3n2)c1N > 76.9 µM, Cc1cn(-c2ccc(Br)cc2)[nH]c1=O > 76.9 µM, CC1CCCCC1N1CCN(C(=O)c2cccc(F)c2)CC1 (stereo unspecified) > 76.9 µM, CC(C)(C)C1CCc2nc(NC(=O)Cc3cn4ccsc4n3)sc2C1 (stereo unspecified) > 15.4 µM, CCn1c(SCCC#N)nnc1-c1ccncc1 > 76.9 µM, O=C1CSC(c2ccccn2)N1c1ccccc1 (stereo unspecified) > 76.9 µM, COc1cccc(C(=O)Nc2c3c(nn2-c2cccc(C)c2C)CS(=O)C3)c1OC (stereo unspecified) > 76.9 µM, CC(C)Oc1ccc(C2C(C(=O)c3ccco3)=C(O)C(=O)N2CCCN(C)C)cc1 (stereo unspecified) > 76.9 µM, Cc1ccc(C)c(NC(=O)CSc2nnc(-c3ccccc3)n2N)c1 > 76.9 µM, Cc1ccc(S(=O)(=O)c2cc3c(=O)n4ccccc4nc3n(CC3CCCO3)c2=N)cc1 (stereo unspecified) > 76.9 µM, COCCCN1C(=O)c2[nH]nc(-c3ccccc3O)c2C1c1cccc(Cl)c1 (stereo unspecified) > 76.9 µM, O=C(O)CCC(=O)N(Cc1cccs1)Cc1cccs1 > 76.9 µM, O=C(O)c1ccccc1-c1ccccc1C(=O)NCc1ccco1 > 76.9 µM, Nc1ccc2c(c1)COc1ccccc1O2 > 76.9 µM, c1ccc2c(c1)nc(-c1ccncc1)n1nnnc21 > 76.9 µM, O=C(CSc1nnc(-c2cccs2)o1)N1CCc2ccccc21 > 76.9 µM, O=C(Nc1ccccc1N1CCOCC1)c1ccc2ccccc2n1 > 76.9 µM, COc1cc(C2C(C(=O)c3ccco3)=C(O)C(=O)N2CCc2ccccc2)ccc1O (stereo unspecified) > 76.9 µM, Cc1cccnc1NC(=O)c1c(O)c2cccc3c2n(c1=O)CCC3 > 76.9 µM, COc1ccccc1NC(=O)CN1CCN(c2ccc(Cl)cc2)CC1 > 76.9 µM, NC(=O)c1oc2ccc(Cl)cc2c1N > 76.9 µM, CC(=O)Nc1ccc(S(=O)(=O)Nc2ccc(N3CCOCC3)cc2)cc1 > 76.9 µM, Clc1ccc(OCc2nn3c(-c4ccncc4)nnc3s2)cc1 > 76.9 µM, Cc1ccc(N(C(=O)C2CCC(=O)N2)C2(C(=O)NC3CCCCC3)CCCCC2)cc1 (stereo unspecified) > 76.9 µM, Cc1cc(=O)n2c3c(sc2n1)C(=O)N(Cc1ccccc1)C3=O > 76.9 µM, COCCNC(=O)C(c1ccco1)N(Cc1ccc(OC)cc1)C(=O)Cn1nnc2ccccc21 (stereo unspecified) > 76.9 µM, O=S(=O)(N1CCCCC1)n1nnc2ccccc21 > 76.9 µM, CCCCc1cc(=O)oc2cc(C)cc(OCC(=O)O)c12 > 76.9 µM, CCOC(=O)N1CCN(C(=O)c2ccc3nc4cc(Cl)ccc4c(=O)n3c2)CC1 > 76.9 µM, CC1CCC(C(=O)NC(C(=O)N2CCN(c3ccccn3)CC2)C(C)C)CC1 (stereo unspecified) > 76.9 µM, CCOC(=O)CSc1nc2c(c(=O)n1-c1ccc(OCC)cc1)SCC2 > 76.9 µM, COc1ccc(C(=O)NCc2c(CC(C)C)oc(C)c2C(=O)O)cc1 > 76.9 µM, O=C(c1noc2c1CCCC2)N1CCN(C(c2ccccc2)c2ccccc2)CC1 > 76.9 µM, O=C1CCCc2nn(-c3ccccc3)c(-c3ccncc3)c21 > 76.9 µM, CC(C)n1cnc2cc(NCc3nc4ccccc4n3C)ccc21 > 76.9 µM, Cc1ccc2nc(NC(=O)CSc3nc4c(c(=O)n3C)SC(C)C4)sc2c1 (stereo unspecified) > 76.9 µM, Cc1ccc(S(=O)(=O)Nn2c(C)ccc2C)cc1, CCNC(=O)CCc1nc(-c2ccc(C(C)(C)C)cc2)no1 > 76.9 µM, O=C(c1ccccc1)N(CCN1CCOCC1)C1(C(=O)Nc2ccccc2)CCCCC1 > 76.9 µM, CC(C)CCNC(=O)NC(=O)COc1ncnc2sccc12 > 76.9 µM, O=C(CC1CCCCC1)NCc1ccccn1 > 76.9 µM, CN1CCN(c2ccc(Cl)cc2NC(=O)C2COc3ccccc3O2)CC1 (stereo unspecified), Cc1cc(C(C)(C)C)cc(S(=O)(=O)NCCO)c1C > 76.9 µM, CCOCCCNS(=O)(=O)c1ccc2c(c1)OCCO2 > 76.9 µM, NS(=O)(=O)c1ccc(CCNC(=O)CCCC2=NS(=O)(=O)c3ccccc3N2)cc1 > 76.9 µM, COc1ccc2[nH]c(=O)c(CN(C(=O)C3CCCO3)c3cccc(C)c3)cc2c1 (stereo unspecified) > 76.9 µM, CCOc1cc2[nH]c(=S)n(CCCN3CCN(C)CC3)c(=O)c2cc1OCC > 76.9 µM, CCOC(=O)/C=C1\NC(C)(C)Cc2cc(OC)c(O)cc21 > 76.9 µM, CCOC(=O)C1CCN(C(=O)COc2cccc(C)c2)CC1 > 76.9 µM, OC1(c2cccc(C(F)(F)F)c2)CCN(c2ccc(-c3ccccc3)nn2)CC1 > 76.9 µM, CCC(C)NC(=O)N[C@@H](CCSC)C(=O)O (stereo partly specified) > 76.9 µM, CCN(CC)Cc1cc2ccccc2c2c1COC2 > 76.9 µM, CCOc1ccc(N2C(=O)CC(SCCN)C2=O)cc1 (stereo unspecified) > 76.9 µM, Cc1ccc(-c2noc(CCC(=O)N3CCCc4ccccc43)n2)cc1 > 76.9 µM, CCOCCCNC(=O)C1CCN(c2cc(C)nc3c(-c4ccc(OC)c(OC)c4)c(C)nn23)CC1 > 76.9 µM, CCOCCCNc1ncc2c(n1)CC(c1ccc(C)cc1)CC2=O (stereo unspecified) > 76.9 µM, S=c1nc(C2CCCCC2)[nH][nH]1 > 76.9 µM, C=CCN1C(=O)C(O)(CC(=O)c2ccc(OC)cc2OC)c2cc(Br)ccc21 (stereo unspecified) > 76.9 µM, CCOc1ccccc1NC=C1C(=O)OC(C)(C)OC1=O > 76.9 µM, COc1ccc(NC(=O)C2C(=O)N(C)C3(C)CC2c2ccccc2O3)cc1 (stereo unspecified) > 76.9 µM, Cn1c(=O)c2c(nc(CN3CCC(C(N)=O)CC3)n2CCCc2ccccc2)n(C)c1=O > 76.9 µM, O=C1CC(C(=O)Nc2ccccc2)C2(CCCC2)O1 (stereo unspecified) > 76.9 µM, O=S(=O)(c1ccc2ccccc2c1)N1CCCOC1 > 76.9 µM, Cc1cc(N2CCN(c3nc4ccccc4s3)CC2)n2ncnc2n1 > 76.9 µM, COc1ccccc1N1CCN(CC(O)COc2ccc(S(=O)(=O)N3CCOCC3)cc2)CC1 (stereo unspecified) > 76.9 µM, Cc1ccc(-n2nc(C(=O)N3CCN(C)CC3)c3c4ccccc4n(C)c3c2=O)cc1 > 76.9 µM, CCOc1ccc(NC(=O)CS(=O)CC(=O)NC2CCCc3ccccc32)cc1 (stereo unspecified) > 76.9 µM, O=C(c1ccco1)N1CCN(CC(O)Cn2c3ccccc3c3ccccc32)CC1 (stereo unspecified) > 76.9 µM, Cc1cccc(N2C(N)=NC(N)=NC23CCCCC3)c1 > 76.9 µM, CNc1nc(C)nc(-n2nc(C)cc2C)n1 > 76.9 µM, CC(C)(C)OC(=O)N1CCC[C@H]1C(=O)NCC1CCC(C(=O)O)CC1 (stereo partly specified) > 76.9 µM, COc1cc(NS(=O)(=O)c2ccc(NC(=O)c3ccc(C)o3)cc2)nc(OC)n1 > 76.9 µM, CCc1nc(N)c(C#N)c(-c2ccccc2OC)c1C > 76.9 µM, CCOC(=O)CN1CC23C=CC(O2)C(C(=O)NCc2cccs2)C3C1=O (stereo unspecified) > 76.9 µM, CCCS(=O)(=O)N1CCN(Cc2ccncc2)CC1 > 76.9 µM, COc1ccc(CNC2CCCCC2C)c(OC)c1 (stereo unspecified) > 76.9 µM, Cc1ccc(C)c(NC(=O)CSc2nnc(CSc3nc(C)cc(C)n3)n2Cc2ccco2)c1 > 76.9 µM, CCC(c1nnnn1C1CCCC1)N1CCN(c2ccccc2)CC1 (stereo unspecified) > 76.9 µM, Cc1cc(C(=O)N2CCN(CCc3ccccc3)CC2)no1 > 76.9 µM, CC1CCN(S(=O)(=O)c2cccc(C(=O)Nc3nccs3)c2)CC1 > 76.9 µM, CC(NC(=O)c1noc2c1CCCC2)c1ccccc1 (stereo unspecified) > 76.9 µM, C=CCn1c(N2CCCCCC2)nc2c1c(=O)n(C)c(=O)n2C > 76.9 µM, COc1ccc(C2/C(=C(\O)c3ccc(OC)c(Cl)c3)C(=O)C(=O)N2CCN(C)C)cc1 (stereo unspecified) > 76.9 µM, O=C(COC(=O)CCC(=O)c1ccc2c(c1)OCCO2)NCc1ccc2c(c1)OCO2 > 76.9 µM, CCOc1cc(C2CC(=O)NC3=C2C(=O)C(C(=O)OC)C(C)C3)cc(Cl)c1O (stereo unspecified) > 76.9 µM, Cn1c(=O)c2ncn(CC(=O)Nc3ccc4oc(-c5cccc6ccccc56)nc4c3)c2n(C)c1=O > 76.9 µM, O=C(COc1ccccc1F)NC1CC1 > 76.9 µM, CC1CN(c2nc3c(c(=O)n(Cc4ccc(Cl)cc4)c(=O)n3C)n2C)CC(C)O1 (stereo unspecified) > 76.9 µM, Cc1ccc2nc(NC(=O)COC(=O)c3ccco3)sc2c1 > 76.9 µM, CCOC(=O)c1oc2ccc(Br)cc2c1CSc1nnc(C)s1 > 76.9 µM, COC(=O)c1c(C#N)c(N)nc2c1CCC2 > 76.9 µM
